{
  "source": "patent US20250368754A1",
  "about": "(KANAPH THERAPEUTICS, published 2025)",
  "key": {"[1]": {"target": "T1, recombinant human herpes virus entry mediator (HVEM) (human, UniProt Q92956 39-202)", "T1 construct": "neither construct is described; also called human HVEM; recombinant human HVEM protein (R&D systems)", "T1 sequence (looked up)": "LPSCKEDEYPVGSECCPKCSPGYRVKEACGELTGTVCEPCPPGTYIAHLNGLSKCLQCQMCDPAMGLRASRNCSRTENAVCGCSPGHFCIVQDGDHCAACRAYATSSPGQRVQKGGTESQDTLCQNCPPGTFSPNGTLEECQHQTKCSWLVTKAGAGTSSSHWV", "assay": "SPR, human HVEM immobilised on CM5, fusion protein as analyte, 1:1 binding model", "experimental": "(§1) Specifically, the surface of the CM5 chip was activated with a 1:1 mixture of […], and 5 to 6 μg/mL of human HVEM was immobilized for 60 seconds at a rate of 10 μL/min. The remaining active ester groups were blocked with 1 M ethanolamine. T3.01, T3.07, T3.09, T3.14, and T3.18 were each diluted to 100 nM in 1×HBS-EP+buffer solution and diluted by serial dilution. The diluted fusion proteins were reacted at a rate of 30 μL/min. The association and dissociation times were 180 seconds and 400 seconds, respectively. After the dissociation step, stabilization was performed for 60 seconds, and then the regeneration step was performed for 30 seconds with a 10 mM glycine pH 1.5 solution at a rate of 30 μL/min."}, "human DcR3": {"target": "T2, human DcR3 (human, UniProt O95407 30-300)", "T2 construct": "also called LIGHT receptor DcR3", "T2 sequence (looked up)": "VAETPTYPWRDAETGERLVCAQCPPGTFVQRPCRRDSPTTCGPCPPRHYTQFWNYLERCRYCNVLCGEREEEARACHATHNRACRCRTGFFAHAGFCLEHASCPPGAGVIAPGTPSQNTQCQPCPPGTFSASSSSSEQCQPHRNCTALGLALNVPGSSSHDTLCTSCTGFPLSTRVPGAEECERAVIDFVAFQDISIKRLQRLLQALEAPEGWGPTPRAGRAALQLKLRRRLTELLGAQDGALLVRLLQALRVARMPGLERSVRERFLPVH", "assay": "SPR, human DcR3 immobilised on CM5, fusion protein as analyte, 1:1 binding model", "experimental": "as §1, with “DcR3” for “HVEM”, “50 nM or 200” for “100”"}, "[2]": {"target": "T3, recombinant human lymphotoxin beta receptor (LTβR) (human, UniProt P36941 28-227, limits assumed)", "T3 construct": "neither construct is described; also called human LTβR; recombinant human LTβR protein", "T3 sequence (P36941 28-227 limits assumed)": "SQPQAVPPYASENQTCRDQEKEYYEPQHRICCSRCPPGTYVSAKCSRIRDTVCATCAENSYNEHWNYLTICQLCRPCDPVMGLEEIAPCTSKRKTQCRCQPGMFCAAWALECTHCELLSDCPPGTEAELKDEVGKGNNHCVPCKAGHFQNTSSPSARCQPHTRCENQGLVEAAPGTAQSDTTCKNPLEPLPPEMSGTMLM", "assay": "SPR, human LTβR immobilised on CM5, fusion protein as analyte, 1:1 binding model", "experimental": "as §1, with “5” for “5 to 6”, “LTβR” for “HVEM”, “T3.01, T3.07, T3.09, T3.14, and T3.18 were each diluted to 100 nM in 1×HBS-EP+buffer solution and diluted by serial dilution.” left out"}},
  "data": [
    {"binder": "T3.09 (anti-hu FAP-hu scLIGHT2/anti-hu FAP-hu LIGHT, hu IgG1 (2 + 1)) (bispecific antibody, As T3.07 but without the DANG mutations; two copies of the light chain follow from the (2 + 1) format) heavy 1: QVQLVQSGAEVKKPGASVKVSCKTSRYTFTEYTIHWVRQAPGQRLEWIGGINPNNGIPNYNQKFKGRVTITVDTSASTAYMELSSLRSEDTAVYYCARRRIAYGYDEGHAMDYWGQGTLVTVSS[human IgG1 constant region with changes not spelt out]GGGSGGGGSEVNPAAHLTGANSSLTGSGGPLLWETQLGLAFLRGLSYHDGALVVTKAGYYYIYSKVQLGGVGCPLGLASTITHGLYKRTPRYPEELELLVSQQSPCGRATSSSRVWWDSSFLGGVVHLEAGEKVVVRVLDERLVRLRDGTRSYFGAFMVGGSGEVNPAAHLTGANSSLTGSGGPLLWETQLGLAFLRGLSYHDGALVVTKAGYYYIYSKVQLGGVGCPLGLASTITHGLYKRTPRYPEELELLVSQQSPCGRATSSSRVWWDSSFLGGVVHLEAGEKVVVRVLDERLVRLRDGTRSYFGAFMV heavy 2: QVQLVQSGAEVKKPGASVKVSCKTSRYTFTEYTIHWVRQAPGQRLEWIGGINPNNGIPNYNQKFKGRVTITVDTSASTAYMELSSLRSEDTAVYYCARRRIAYGYDEGHAMDYWGQGTLVTVSSASTKGPSVFPLAPSSKSTSGGTAALGCLVKDYFPEPVTVSWNSGALTSGVHTFPAVLQSSGLYSLSSVVTVPSSSLGTQTYICNVNHKPSNTKVDKKV[human IgG1 Fc with changes not spelt out]GGGSGGGGSEVNPAAHLTGANSSLTGSGGPLLWETQLGLAFLRGLSYHDGALVVTKAGYYYIYSKVQLGGVGCPLGLASTITHGLYKRTPRYPEELELLVSQQSPCGRATSSSRVWWDSSFLGGVVHLEAGEKVVVRVLDERLVRLRDGTRSYFGAFMV light: DIVMTQSPDSLAVSLGERATINCKSSQSLLYSRNQKNYLAWYQQKPGQPPKLLIFWASTRESGVPDRFSGSGFGTDFTLTISSLQAEDVAVYYCQQYFSYPLTFGQGTKVEIKRTVAAPSVFIFPPSDEQLKSGTASVVCLLNNFYPREAKVQWKVDNALQSGNSQESVTEQDSKDSTYSLSSTLTLSKADYEKHKVYACEVTHQGLSSPVTKSFNRGEC", "values": [
      {"measurement": "Kd", "setting": "[1]", "result": 4.17, "unit": "nM"},
      {"measurement": "koff", "setting": "[1]", "result": 0.00167, "unit": "s⁻¹"},
      {"measurement": "kon", "setting": "[1]", "result": 401000, "unit": "M⁻¹ s⁻¹"},
      {"measurement": "Kd", "setting": "human DcR3", "result": 0.711, "unit": "nM"},
      {"measurement": "koff", "setting": "human DcR3", "result": 0.000285, "unit": "s⁻¹"},
      {"measurement": "kon", "setting": "human DcR3", "result": 400000, "unit": "M⁻¹ s⁻¹"},
      {"measurement": "Kd", "setting": "[2]", "result": 0.628, "unit": "nM"},
      {"measurement": "koff", "setting": "[2]", "result": 0.000483, "unit": "s⁻¹"},
      {"measurement": "kon", "setting": "[2]", "result": 770000, "unit": "M⁻¹ s⁻¹"}
    ]}
  ]
}
